Data on four molecules can be found in ChEMBL document CHEMBL1961873, “Compounds: GSK PKIS; Assays: Nanosyn kinase panel” (2012).

In test [1] the target is 5'-AMP-activated protein kinase catalytic subunit alpha-2 (Homo sapiens) (UniProt P54646). Particulars: at 1 µM.
Test [2] has as its target T1, NUAK family SNF1-like kinase 1 (Homo sapiens) (UniProt O60285).
T1 sequence (whole entry): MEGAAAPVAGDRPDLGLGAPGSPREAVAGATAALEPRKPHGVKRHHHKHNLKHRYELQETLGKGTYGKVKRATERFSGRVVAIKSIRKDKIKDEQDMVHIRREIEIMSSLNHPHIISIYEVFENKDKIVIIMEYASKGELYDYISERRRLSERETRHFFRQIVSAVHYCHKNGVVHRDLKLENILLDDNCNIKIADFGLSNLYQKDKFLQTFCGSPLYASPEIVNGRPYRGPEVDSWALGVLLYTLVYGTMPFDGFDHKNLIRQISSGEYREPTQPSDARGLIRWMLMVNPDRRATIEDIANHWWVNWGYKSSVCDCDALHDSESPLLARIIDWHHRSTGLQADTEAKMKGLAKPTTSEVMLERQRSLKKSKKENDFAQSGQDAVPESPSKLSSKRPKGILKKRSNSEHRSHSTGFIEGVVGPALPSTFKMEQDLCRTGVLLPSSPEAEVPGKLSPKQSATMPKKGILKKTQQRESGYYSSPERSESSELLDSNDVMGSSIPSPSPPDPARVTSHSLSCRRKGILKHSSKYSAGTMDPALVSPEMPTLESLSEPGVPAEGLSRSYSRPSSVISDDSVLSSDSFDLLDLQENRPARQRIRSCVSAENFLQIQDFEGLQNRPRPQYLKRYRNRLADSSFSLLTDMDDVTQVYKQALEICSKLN
Particulars: at 0.1 µM.

The target of test [3] is T1, NUAK family SNF1-like kinase 1 (Homo sapiens). Particulars: at 1 µM.
Test [4] addresses T2, Serine/threonine-protein kinase BRSK1 (Homo sapiens) (UniProt Q8TDC3).
T2 sequence (whole entry): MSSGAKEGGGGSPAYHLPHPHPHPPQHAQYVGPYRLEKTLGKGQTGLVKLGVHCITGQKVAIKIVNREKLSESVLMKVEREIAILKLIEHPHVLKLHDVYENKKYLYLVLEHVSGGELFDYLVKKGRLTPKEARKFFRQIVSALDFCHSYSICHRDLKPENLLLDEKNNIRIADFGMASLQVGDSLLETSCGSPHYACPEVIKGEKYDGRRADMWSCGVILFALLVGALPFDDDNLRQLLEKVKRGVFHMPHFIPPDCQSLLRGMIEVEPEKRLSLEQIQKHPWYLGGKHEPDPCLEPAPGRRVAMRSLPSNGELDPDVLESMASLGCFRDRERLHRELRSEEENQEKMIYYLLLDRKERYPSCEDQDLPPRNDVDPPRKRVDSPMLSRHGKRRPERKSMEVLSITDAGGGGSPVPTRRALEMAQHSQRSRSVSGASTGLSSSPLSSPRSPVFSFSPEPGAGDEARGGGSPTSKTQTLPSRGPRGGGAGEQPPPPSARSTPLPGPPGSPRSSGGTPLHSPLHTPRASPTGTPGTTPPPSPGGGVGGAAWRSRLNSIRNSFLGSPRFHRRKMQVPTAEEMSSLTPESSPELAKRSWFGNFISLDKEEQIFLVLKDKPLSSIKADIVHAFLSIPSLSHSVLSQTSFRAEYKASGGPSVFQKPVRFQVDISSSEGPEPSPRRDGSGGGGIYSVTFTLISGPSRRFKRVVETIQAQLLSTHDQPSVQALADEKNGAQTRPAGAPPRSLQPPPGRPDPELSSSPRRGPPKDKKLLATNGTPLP
The note with it: at 0.1 µM.

The target in test [5] is T2, Serine/threonine-protein kinase BRSK1 (Homo sapiens). Particulars: at 1 µM.
Test [6] deals with T3, Serine/threonine-protein kinase BRSK2 (Homo sapiens) (UniProt Q8IWQ3).
T3 sequence (whole entry): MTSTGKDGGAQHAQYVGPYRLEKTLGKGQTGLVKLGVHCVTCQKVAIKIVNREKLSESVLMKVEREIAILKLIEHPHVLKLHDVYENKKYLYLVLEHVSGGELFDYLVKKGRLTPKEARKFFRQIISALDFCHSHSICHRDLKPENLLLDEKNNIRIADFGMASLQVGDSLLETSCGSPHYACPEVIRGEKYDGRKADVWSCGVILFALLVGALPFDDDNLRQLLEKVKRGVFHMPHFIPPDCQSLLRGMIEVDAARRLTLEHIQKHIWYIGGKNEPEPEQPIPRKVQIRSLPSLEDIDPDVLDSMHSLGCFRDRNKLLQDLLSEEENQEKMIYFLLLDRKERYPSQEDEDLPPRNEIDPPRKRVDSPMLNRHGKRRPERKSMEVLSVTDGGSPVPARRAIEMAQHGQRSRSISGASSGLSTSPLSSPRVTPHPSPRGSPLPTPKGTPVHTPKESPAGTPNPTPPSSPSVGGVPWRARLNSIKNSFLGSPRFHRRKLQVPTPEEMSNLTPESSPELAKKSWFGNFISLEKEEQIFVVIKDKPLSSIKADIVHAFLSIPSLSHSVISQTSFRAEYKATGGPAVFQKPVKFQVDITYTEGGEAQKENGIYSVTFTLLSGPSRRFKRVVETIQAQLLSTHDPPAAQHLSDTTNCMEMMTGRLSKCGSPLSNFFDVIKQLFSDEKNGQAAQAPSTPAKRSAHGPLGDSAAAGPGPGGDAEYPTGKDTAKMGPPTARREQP
Particulars: at 0.1 µM.

The target of test [7] is T3, Serine/threonine-protein kinase BRSK2 (Homo sapiens). The note with it: at 1 µM.
For test [8], the target named is Calcium/calmodulin-dependent protein kinase type 1D (Homo sapiens) (UniProt Q8IU85). The note with it: at 0.1 µM.
Test [9] shares this target. The note with it: at 1 µM.
Test [10] addresses Calcium/calmodulin-dependent protein kinase type II subunit alpha (Homo sapiens) (UniProt Q9UQM7). The note with it: at 0.1 µM.
Test [11] shares this target. The note with it: at 1 µM.
Test [12] concerns the target Calcium/calmodulin-dependent protein kinase type II subunit delta (Homo sapiens) (UniProt Q13557). The note with it: at 0.1 µM.
For test [13] the target is unchanged. The note with it: at 1 µM.
The target in test [14] is T4, Calcium/calmodulin-dependent protein kinase type IV (Homo sapiens) (UniProt Q16566).
T4 sequence (whole entry): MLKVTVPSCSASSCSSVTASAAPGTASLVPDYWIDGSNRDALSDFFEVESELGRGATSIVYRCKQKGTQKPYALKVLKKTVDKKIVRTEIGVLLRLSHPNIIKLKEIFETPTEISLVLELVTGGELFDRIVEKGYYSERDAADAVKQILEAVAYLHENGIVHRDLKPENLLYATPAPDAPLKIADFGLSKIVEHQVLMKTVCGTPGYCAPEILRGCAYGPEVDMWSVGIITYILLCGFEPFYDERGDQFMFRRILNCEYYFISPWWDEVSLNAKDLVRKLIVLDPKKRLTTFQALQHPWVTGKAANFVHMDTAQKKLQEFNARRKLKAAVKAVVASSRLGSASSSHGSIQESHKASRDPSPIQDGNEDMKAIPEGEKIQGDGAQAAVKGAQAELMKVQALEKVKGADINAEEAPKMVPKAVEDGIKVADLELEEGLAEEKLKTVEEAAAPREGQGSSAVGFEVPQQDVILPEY
Particulars: at 0.1 µM.

Test [15] has as its target T4, Calcium/calmodulin-dependent protein kinase type IV (Homo sapiens). The note with it: at 1 µM.
Test [16] deals with T5, Serine/threonine-protein kinase Chk1 (Homo sapiens) (UniProt O14757).
T5 sequence (whole entry): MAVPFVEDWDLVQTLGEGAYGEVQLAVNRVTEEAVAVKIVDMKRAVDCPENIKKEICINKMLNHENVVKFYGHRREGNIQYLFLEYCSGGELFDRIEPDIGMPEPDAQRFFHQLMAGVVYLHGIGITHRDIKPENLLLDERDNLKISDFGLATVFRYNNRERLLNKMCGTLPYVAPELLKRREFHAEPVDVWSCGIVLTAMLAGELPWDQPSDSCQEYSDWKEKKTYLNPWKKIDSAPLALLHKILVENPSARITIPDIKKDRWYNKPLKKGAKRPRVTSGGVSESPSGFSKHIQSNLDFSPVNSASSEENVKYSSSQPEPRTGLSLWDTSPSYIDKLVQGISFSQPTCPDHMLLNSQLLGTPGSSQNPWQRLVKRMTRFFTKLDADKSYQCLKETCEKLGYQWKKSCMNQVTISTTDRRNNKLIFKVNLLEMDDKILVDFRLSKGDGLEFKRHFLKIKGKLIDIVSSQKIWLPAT
The note with it: at 0.1 µM.

The target of test [17] is T5, Serine/threonine-protein kinase Chk1 (Homo sapiens). The note with it: at 1 µM.
Test [18] deals with Serine/threonine-protein kinase Chk2 (Homo sapiens) (UniProt O96017). The note with it: at 0.1 µM.
The target is the same in test [19]. The note with it: at 1 µM.
The target in test [20] is Death-associated protein kinase 1 (Homo sapiens) (UniProt P53355). The note with it: at 0.1 µM.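 Further: reported figure is the mean inhibition of DAPK1.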

For some assays here: The strong results were mostly taken out for another list; the other results follow. The list shows a part of the results, in another mix than the full data.

UniProt P54646, sequence (P54646 whole entry, looked up): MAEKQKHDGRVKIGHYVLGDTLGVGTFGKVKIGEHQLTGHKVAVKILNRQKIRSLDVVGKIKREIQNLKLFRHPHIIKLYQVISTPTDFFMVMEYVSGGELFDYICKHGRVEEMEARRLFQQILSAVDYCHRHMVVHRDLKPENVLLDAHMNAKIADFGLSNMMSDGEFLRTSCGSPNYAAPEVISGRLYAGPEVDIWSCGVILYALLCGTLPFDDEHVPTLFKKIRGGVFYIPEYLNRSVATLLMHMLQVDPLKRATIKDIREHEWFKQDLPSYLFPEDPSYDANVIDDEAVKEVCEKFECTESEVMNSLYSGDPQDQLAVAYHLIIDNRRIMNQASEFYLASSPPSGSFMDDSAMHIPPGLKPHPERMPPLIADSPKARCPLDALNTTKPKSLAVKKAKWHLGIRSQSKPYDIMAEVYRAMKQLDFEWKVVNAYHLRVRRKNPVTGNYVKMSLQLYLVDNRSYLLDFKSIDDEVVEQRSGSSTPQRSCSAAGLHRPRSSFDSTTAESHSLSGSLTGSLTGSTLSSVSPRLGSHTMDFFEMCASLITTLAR
UniProt P53355, sequence (P53355 whole entry, looked up): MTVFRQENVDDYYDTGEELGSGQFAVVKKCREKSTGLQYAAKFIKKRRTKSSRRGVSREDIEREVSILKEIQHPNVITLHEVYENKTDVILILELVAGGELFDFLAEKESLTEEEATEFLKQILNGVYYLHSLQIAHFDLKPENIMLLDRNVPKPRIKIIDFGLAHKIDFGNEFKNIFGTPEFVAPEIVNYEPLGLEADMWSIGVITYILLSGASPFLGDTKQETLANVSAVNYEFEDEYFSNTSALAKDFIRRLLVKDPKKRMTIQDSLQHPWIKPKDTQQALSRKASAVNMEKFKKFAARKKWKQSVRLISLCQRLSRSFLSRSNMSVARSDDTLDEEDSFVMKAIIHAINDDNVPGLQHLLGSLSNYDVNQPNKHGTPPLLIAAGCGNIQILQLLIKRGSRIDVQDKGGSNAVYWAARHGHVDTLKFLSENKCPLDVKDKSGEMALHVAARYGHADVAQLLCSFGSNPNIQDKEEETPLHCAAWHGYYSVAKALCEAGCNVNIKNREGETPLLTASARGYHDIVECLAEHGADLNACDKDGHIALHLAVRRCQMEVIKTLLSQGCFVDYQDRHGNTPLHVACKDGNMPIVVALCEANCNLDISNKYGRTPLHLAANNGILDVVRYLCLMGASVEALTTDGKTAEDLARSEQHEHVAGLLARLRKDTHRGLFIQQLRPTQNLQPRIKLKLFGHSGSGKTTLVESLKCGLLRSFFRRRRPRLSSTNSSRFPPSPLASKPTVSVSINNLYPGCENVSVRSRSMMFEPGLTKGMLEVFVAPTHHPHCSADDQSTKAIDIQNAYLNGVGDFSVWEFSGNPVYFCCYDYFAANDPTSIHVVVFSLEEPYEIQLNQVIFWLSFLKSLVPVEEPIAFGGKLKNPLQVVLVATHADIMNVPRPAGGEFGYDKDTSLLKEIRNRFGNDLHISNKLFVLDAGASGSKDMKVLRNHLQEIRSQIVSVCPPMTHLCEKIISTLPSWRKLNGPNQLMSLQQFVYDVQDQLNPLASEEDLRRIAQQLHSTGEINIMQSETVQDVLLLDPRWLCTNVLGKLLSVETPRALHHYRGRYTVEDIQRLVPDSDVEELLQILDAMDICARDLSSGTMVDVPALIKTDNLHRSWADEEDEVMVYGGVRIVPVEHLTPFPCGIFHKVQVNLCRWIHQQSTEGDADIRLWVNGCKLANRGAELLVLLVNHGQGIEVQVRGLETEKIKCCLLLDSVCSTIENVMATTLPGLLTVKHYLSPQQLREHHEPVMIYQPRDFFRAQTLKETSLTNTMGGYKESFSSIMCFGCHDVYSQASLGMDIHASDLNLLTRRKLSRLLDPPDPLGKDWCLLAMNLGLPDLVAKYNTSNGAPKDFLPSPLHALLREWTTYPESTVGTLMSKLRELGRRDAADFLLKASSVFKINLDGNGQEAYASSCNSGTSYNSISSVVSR
UniProt O96017, sequence (O96017 whole entry): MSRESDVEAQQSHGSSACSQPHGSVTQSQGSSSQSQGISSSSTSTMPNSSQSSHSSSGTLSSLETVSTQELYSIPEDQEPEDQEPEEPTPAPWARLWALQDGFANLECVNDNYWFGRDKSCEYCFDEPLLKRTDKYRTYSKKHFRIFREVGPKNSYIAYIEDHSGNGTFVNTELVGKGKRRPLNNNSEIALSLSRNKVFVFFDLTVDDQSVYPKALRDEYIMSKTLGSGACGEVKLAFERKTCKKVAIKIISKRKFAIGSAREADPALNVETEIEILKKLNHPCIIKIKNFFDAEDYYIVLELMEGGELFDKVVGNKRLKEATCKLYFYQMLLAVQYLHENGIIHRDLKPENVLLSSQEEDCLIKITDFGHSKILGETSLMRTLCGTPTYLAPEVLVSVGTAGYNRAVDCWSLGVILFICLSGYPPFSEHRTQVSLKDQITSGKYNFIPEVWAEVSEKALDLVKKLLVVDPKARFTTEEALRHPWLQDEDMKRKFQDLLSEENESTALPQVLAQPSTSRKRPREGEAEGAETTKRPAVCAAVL
UniProt Q13557, sequence (Q13557 whole entry): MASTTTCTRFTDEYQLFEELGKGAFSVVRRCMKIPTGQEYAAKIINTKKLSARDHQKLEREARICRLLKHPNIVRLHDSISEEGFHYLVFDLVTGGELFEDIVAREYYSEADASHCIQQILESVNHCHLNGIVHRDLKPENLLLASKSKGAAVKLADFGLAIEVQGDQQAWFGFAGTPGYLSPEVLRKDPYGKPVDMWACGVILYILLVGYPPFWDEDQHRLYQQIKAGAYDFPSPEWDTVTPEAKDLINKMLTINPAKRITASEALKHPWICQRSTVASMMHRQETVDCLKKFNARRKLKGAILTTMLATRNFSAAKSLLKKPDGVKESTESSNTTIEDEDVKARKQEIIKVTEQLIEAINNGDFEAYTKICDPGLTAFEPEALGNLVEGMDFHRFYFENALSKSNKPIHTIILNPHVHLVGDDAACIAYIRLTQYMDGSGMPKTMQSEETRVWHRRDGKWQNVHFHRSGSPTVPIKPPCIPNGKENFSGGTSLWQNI
UniProt Q9UQM7, sequence (Q9UQM7 whole entry): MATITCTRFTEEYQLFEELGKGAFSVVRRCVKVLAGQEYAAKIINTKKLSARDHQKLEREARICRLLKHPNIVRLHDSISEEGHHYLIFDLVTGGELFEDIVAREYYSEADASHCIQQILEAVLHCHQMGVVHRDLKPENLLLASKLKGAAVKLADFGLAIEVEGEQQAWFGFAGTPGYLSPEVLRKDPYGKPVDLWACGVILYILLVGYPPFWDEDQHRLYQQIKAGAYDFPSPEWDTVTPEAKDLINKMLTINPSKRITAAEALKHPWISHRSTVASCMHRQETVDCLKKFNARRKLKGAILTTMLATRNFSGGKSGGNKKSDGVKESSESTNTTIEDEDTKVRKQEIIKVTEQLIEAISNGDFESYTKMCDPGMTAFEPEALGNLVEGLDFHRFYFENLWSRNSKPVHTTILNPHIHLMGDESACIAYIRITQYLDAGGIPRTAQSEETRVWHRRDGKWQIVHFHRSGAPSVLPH
UniProt Q8IU85, sequence (Q8IU85 whole entry, looked up): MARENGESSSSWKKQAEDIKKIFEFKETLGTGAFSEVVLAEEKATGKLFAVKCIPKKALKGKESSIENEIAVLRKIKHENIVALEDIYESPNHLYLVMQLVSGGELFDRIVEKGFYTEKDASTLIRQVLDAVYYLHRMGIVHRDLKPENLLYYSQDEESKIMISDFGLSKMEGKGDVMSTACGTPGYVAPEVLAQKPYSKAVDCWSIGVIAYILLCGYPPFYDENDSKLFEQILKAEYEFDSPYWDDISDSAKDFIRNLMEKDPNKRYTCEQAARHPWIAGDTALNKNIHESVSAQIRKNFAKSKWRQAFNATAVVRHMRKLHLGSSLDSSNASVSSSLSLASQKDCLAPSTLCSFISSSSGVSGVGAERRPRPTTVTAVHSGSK

One may read the inhibition as the relative decrease from the control value, in per cent. In the case of `Fc1ccc(Oc2nccc(-c3c(-c4ccc(F)cc4)ncn3C3CCNCC3)n2)cc1`, the inhibition in test [1] was -0.1%; in [2] it was 0.78%; in test [3], 3.87%; in test [4] it was 1.52%; in test [5], -1.18%; in test [6], 0.12%. Besides, the inhibition in [7] is 1.42%; in [8] it was -1.43%; in test [9], 1.02%; in [10], 1.76%; in test [11] it was 4.77%; in test [12], 2.82%. Moreover, the inhibition in test [13] was 6.35%; in test [14], -2.12%; in test [15], 0.64%; in test [16], 1.08%; in test [17] it was 6.69%; in test [18], 3.02%. Moreover, the inhibition in test [19] is 6.36%; in test [20], 3.32%.

`O=C(O)c1ccc(Oc2nccc(-c3c(-c4ccc(F)cc4)ncn3C3CCNCC3)n2)cc1`: the inhibition in test [1] was 1.74%; in test [2] it was -1.45%; in test [3] it was 1.01%; in test [4] it was 1.46%; in test [5] it was 0.18%; in test [6], 1.07%. Further, the inhibition was 2.38% in test [7]; -0.18% in [8]; 1.37% in [9]; 2.85% in test [10]; 4.54% in test [11]; 4.68% in test [12]. Moreover, the inhibition in test [13] is 5.47%; in test [14], -2.33%; in test [15] it was -0.4%; in test [16], 6.5%; in test [17] it was 7.27%; in test [18] it was 4.58%. Besides, the inhibition worked out at 7.7% in [19] and 7.6% in test [20].

For the molecule `O=C1NC(=O)C(c2ccccc2Cl)=C1Nc1cc(Cl)c(O)c(Cl)c1`, the inhibition in test [1] is 3.61%; in [2], 3.41%; in test [3], 5.33%; in test [4], -1.31%; in test [5], 2.29%; in [6], 0.83%. For the same molecule, the inhibition in test [7] was 4.26%; in test [8], -0.96%; in test [9], 0.14%; in [10] it was 2.22%; in [11], 2.64%; in [12] it was 0.53%. Besides, the inhibition in [13] is 3.74%; in [14], -2.03%; in test [15], -3.72%; in test [16], 1.07%; in [17], 4.8%; in [18], 2.37%. Besides, the inhibition in [19] was found to be 3.75%; in test [20], 3.92%.

With `CC(C)(C)c1ccc(Oc2nccc(-c3c(-c4ccc(F)cc4)ncn3C3CCNCC3)n2)cc1`, the inhibition was 5.9% in test [1]; -0.96% in test [2]; 4.39% in test [3]; -1.81% in [4]; 1.95% in test [5]; 1.03% in test [6]. In addition, the inhibition in test [7] came to 4.66%; in test [8] it was 1.26%; in [9] it was 3.15%; in [10], 1.49%; in [11], 5.11%; in [12], 3.29%. For the same molecule, the inhibition was 8% in test [13]; -1.04% in test [14]; 2.6% in [15]; -0.85% in test [16]; 0.23% in test [17]; 3.51% in test [18]. Also, the values for the inhibition in test [19] and in test [20] were 5.41% and -0.19%, respectively.
